# Data reported in the RNAGym collection of RNA variant scans (doi:10.7554/elife.90254).
# The source gives no read counts; variants with many changes may rest on few reads.
# B1: LINE1-mini (parent)
# chain: GGCAGAGCUCAACACAGCGUGGCAAAGUGGCUGUGGCUAGACUGCC
# Variants of: B1
# Experiment: self-cleavage, relative activity (ratio to wild type); higher = more cleavage; in vitro, sequencing; the parent is a self-cleaving ribozyme
row,Variant,self-cleavage
1,GACAGAGCGCAACACAGCGUGGCAAAGUGGCUGUUGCUAGACUGCC [G2A U9G G35U],0.13
2,GCCAGUGACCAACACAGCGUGGCAAAGUGGCUGUGGCUAAACUGCC [G2C A6U C8A U9C G40A],0.07
3,GCCCGAGCUCAACACAGCGUCACAAAGUCGCUGUGGCUAGACUGCC [G2C A4C G21C G22A G29C],0.02
4,GCCAGAGCUCGACACAGCGUGGCAAAGUGGCUGUGGCUAGACCGUC [G2C A11G U43C C45U],0
5,GCCAGGGCUCAACACAGCGUGGCAAAGUGGCUGUGGCUAGACUGAC [G2C A6G C45A],0.05
6,GCCUGAGAUCAACACAGCGUGGCAAAGUGGGUGUGGCUAGACUGCC [G2C A4U C8A C31G],0.2
7,GCCAGGGCUCAACAUAGCGUGGCAAAGUGGCUGUCGCUAGACUGCC [G2C A6G C15U G35C],0.09
8,GCCGGAGCUCAACACAGCGUGGCAAAGUGGCUGUGGUCAGACUUCC [G2C A4G C37U U38C G44U],0.04
9,GCCUGAGCUCAACACAGCGUGGCAAAGUGGCUGUGGCUAGACUGCU [G2C A4U C46U],0.06
10,GCCGGAGCUAAACACAACGUGGCAGAGUGGCUGUGGCUAGACUGCC [G2C A4G C10A G17A A25G],0.01
11,GCCUGUGCUCGACACAGCGUGGCAAAGUGGCUGUGGCUAGACUGCA [G2C A4U A6U A11G C46A],0.05
12,GACAGAGCUCAACACAGCGUGGCAAAGUGGCCGUGGCAAGACUGCC [G2A U32C U38A],0.09
13,GCCAGAGCUCUACACAGCGUGGCAAAAUGGCUGAGGCUAGACUGCC [G2C A11U G27A U34A],0.05
14,GCCCGAGCUCAACACAGCGUGGCAGAGUGGCUGUGGCUAGACUGCC [G2C A4C A25G],0.07
15,GACAGAGCUCAACACAGCGCGGCAAAGGGGCUGUCGCUAGACUCCC [G2A U20C U28G G35C G44C],0.23
16,GACAGAGCUCAACACAGCGUGGCAAAGCGGCUGUGACUAGACUGCC [G2A U28C G36A],0.13
17,GCCAGGGAUCAACAAAGCGUGGCGAAGUGGCCGUGGAUAGACUGCC [G2C A6G C8A C15A A24G U32C C37A],0.03
18,GCCCGAGCUCAACACAGCGUGGCAGAGUGGCUGUGGCUAGACUGAC [G2C A4C A25G C45A],0.02
19,GCCAGUGCUCAACACAGCGUAGCAAAGUGGCUGUGGCUAGACUGCC [G2C A6U G21A],0.07

row,Variant,self-cleavage
1,GCCGAAGCGCAACACAGCGUGGCAAAGUGGCUGUGUCUAGACUGCC [G2C A4G G5A U9G G36U],0.07
2,GCCAGCGCUCAACACAGCGUGGCAAACUGGCUGUGGCUAGGCUGCC [G2C A6C G27C A41G],0.03
3,GCCAGCGCUCAACACAGCGUGGCAAAGUGGCUGUGGCUCGAUGGCC [G2C A6C A39C C42U U43G],0.01
4,GCCGGAGCUCAACACAGCGUGGCACAGUGGCUGUGGCUAGACUGCC [G2C A4G A25C],0.07
5,GCCUGAGCUCGACAAAGCGUGGCAAAGUGGCUGUGGCUACACUGCU [G2C A4U A11G C15A G40C C46U],0.01
6,GACAGAGCUCAACACAGCGAUGCAAAGUGGCUGUGGCUAGACUGCC [G2A U20A G21U],0.36
7,GACAGAGCUCAACACAGCGUGGCAAAGCGUCUGUCGCUAGACAGCC [G2A U28C G30U G35C U43A],0.02
8,GCCCUAGCUCAACACAGCGUGGCAAAGUGGCUGUGGCUAGACUGCC [G2C A4C G5U],0.03
9,GACAGAGCUCAACACAGCGAGCCAAACUGGCUAUGGCUAGACUGCC [G2A U20A G22C G27C G33A],0.15
10,GCCAGAGCUCUACACAGCCUGGCAAAGUGACUGUUGCUAGACGGAC [G2C A11U G19C G30A G35U U43G C45A],0
11,GCCGGAGCUAAACACAGCGUGGCAAAGUGGCUGUGGGCAGACUGCC [G2C A4G C10A C37G U38C],0.01
12,GCCAGGGCUCAACACAGCGUGGCAAAGUGGCUGAGUCUAGACUGCC [G2C A6G U34A G36U],0.06
13,GCCAGUACUCAACACCGCGUCGCAAAGUGGCUGUGGCUAGAUUGUC [G2C A6U G7A A16C G21C C42U C45U],0.54
14,GACAGAGCUCAACACAGCGCGGCAAAGUGGUUCUUGCUAGACUGCC [G2A U20C C31U G33C G35U],0.18
15,GACAGAGCUCAACACAGCGUGGCAAAGGGGCUGUGGCUAGACAGCC [G2A U28G U43A],0.22
16,GCCAGUGCUCAACACAGCGUGGCAAAGUGUCUGUGGCUAGCCUGCC [G2C A6U G30U A41C],0.04
17,GCCGGAUCUCAGCACAGCGUGGCAAAGUGGCUGUGGCUAGACAGCC [G2C A4G G7U A12G U43A],0.08
18,GCCAGUGCUCAACACAGCGUUGCAUAGUAGCUGUGGCUAGACUGCC [G2C A6U G21U A25U G29A],0.36
19,GCCGGAGCUCAACUCAGCGUGGCAAAGUGGUUGUGGCUAGACUGCA [G2C A4G A14U C31U C46A],0.04

row,Variant,self-cleavage
1,GCCAGGGCUAAAUCCAGCGUGGCAAAUUGGCUGUGGCUAGACUGCC [G2C A6G C10A C13U A14C G27U],0.03
2,GACAGAGCUCAACACAGCGUGGCAAAGGGGCCGUGGCUAGACUGCG [G2A U28G U32C C46G],0.04
3,GCCAGAGCUCUACACAGCGUGGAAAAGGGGCUGUGGCUAGACUGCC [G2C A11U C23A U28G],0.02
4,GACAGAGCGCAACACAGCGAGGCAAAGUGGCUAUGGCUAGACUGCC [G2A U9G U20A G33A],0.08
5,GCCAGUUCUCAACCCAGCUUGGCAAAGUUGCUGUGGCUAGACUGCC [G2C A6U G7U A14C G19U G29U],0.07
6,GCCCGAGCUCAACACAGCGUGGCAACCUGGCGGUGGCUAGACUGCC [G2C A4C A26C G27C U32G],0.1
7,GCCUGUGCUCAACACAUCGUCGCAAAGUGGCUGUGGUUAGAGUGCC [G2C A4U A6U G17U G21C C37U C42G],0.01
8,GCCCGUGCUCAACACUGCAUGGCAAAAUGGCUGUGGCUAGACUGCC [G2C A4C A6U A16U G19A G27A],0.28
9,GACAGAGCUCAACACAGCGAGCCAAAGGGUCUGUGUUUAGACUGCC [G2A U20A G22C U28G G30U G36U C37U],0.02
10,GACAGAGCUCAACACAGCGUGGCAAAGUGGCUGUGGCAAGACCGCC [G2A U38A U43C],0.34
11,GCCGGAGCUCAUCACAGAGUGGCAAAUUUGCUGGGGCUAGACUGCC [G2C A4G A12U C18A G27U G29U U34G],0
12,GACAGAGCUCAACACAGCGAGGCAAAGUGGCUGCGGCUAGACUGUC [G2A U20A U34C C45U],0.33
13,GACAGAGCUCAACACAGCGUGGCAAAGUGGCCGUGGCUAGACUGUA [G2A U32C C45U C46A],0.48
14,GCCAGCGCUCAACACAGCGUGGCCAAGUGGCUGUGGCUAGACUGAC [G2C A6C A24C C45A],0.02
15,GCCAGUGCUCAACACAGCCUGGCAAAGUGGCUGUGGCUAGACUGCC [G2C A6U G19C],0.04
16,GCCAGCGCUCAAUACAGAGUGGCCAAGUGGCUAUGGCUAGACUGCC [G2C A6C C13U C18A A24C G33A],0.02
17,GACAGAGCUCAACACAGCGUGGCAAAGAGGCUGUAGCUAGACUGCC [G2A U28A G35A],0.56
18,GCCAGCGCUCAACACAGCGUGGCAAAGUGGCUGUGGCUAAACUGCC [G2C A6C G40A],0.01
